Among the data in PubChem BioAssay AID2060351 (Molecular Pharmacology Branch, DTP, NCI, 2025) are viability, T/C values, retold here.

Usually viability, T/C stands for the ratio of treated to control.

This experiment deals with 521955-158-R7-J2-PDC spheroids, viability % test/control. Put plainly: Anticancer human tumor 521955-158-R7-J2-PDC patient-derived pancreatic carcinoma cell line growth inhibition [TAK]. To be noted: stronger effect = lower value, spheroids with HUVEC and MSC. From the text:
Combinatorial screen of targeted agents with TAK-243 and ipatasertib in multi-cell type tumor spheroids
A high-throughput screen of multi-cell type tumor spheroids was designed to identify active combinations of targeted small molecules and TAK-243 or ipatasertib. Complex spheroids include a stromal component modeled by human endothelial cells (HUVEC) and fibroblasts modeled by human mesenchymal stem cells (MSCs). The concentration ranges selected for each drug and investigational agent were based upon clinically achievable concentrations if the clinical Cmax of the agent was known.
Compounds. The drugs and investigational agents: TAK-243 (785004), ipatasertib (767898), everolimus (733504), selumetinib (741078), bortezomib (756655), trametinib (758246), ixazomib (758254), vemurafenib (761431), dabrafenib (764134), sapanisertib (764658), alpelisib (765974), and copanlisib (816437), were obtained from the National Cancer Institute (NCI) Developmental Therapeutics Program Chemical Repository. The FDA-approved anticancer drug set is available from the NCI Developmental Therapeutics Program. […] The stock solutions were prepared in dimethyl sulfoxide (DMSO, Sigma-Aldrich, St. Louis, MO, cat. D2650) at 800-fold the tested concentration and stored at -70 degrees C prior to their use. All drugs and investigational agents were tested over a range starting from a high concentration at or near the clinical Cmax and decreasing in half-log increments. If the clinical Cmax for an agent had not been determined, the highest concentration tested was 10 microM.
NCI60 Cell Culture. NCI60 cell lines were obtained from the NCI Developmental Therapeutics Program Tumor Repository. For each lot of cells, the Repository performed Applied Biosystems AmpFLSTR Identifiler testing with PCR amplification to confirm consistency with the published Identifier STR profile for each cell line. Cells were kept in continuous culture for no more than 20 passages. The optimal seeding densities for each of the cell lines at each time point assessed were determined prior to performing the concentration response studies. Briefly, the NCI60 human tumor lines were grown as monolayers in RPMI 1640 medium supplemented with 10% FBS and 2 mmol/L L-glutamine.
An additional 2 lines were from the NCI60 cell line panel including melanomas, MALME-3M and SK-MEL-2. Pooled donor human umbilical vein endothelial cells (HUVEC, Lonza, cat. CC-2519) and human mesenchymal stem cells (hMSC, Lonza, cat. PT-2501) were purchased from Lonza (Walkersville, MD). […]
For the pre-screen, cell seeding densities were determined from a titration spanning the range from 5,000 to 313 cells per well. […]

Molecules are shown by their SMILES. A number of entries come with more than one value. They are shown here; other results are not. There may be further records. Values given together are repeated measurements in other runs, samples, wells, individuals or studies. Counts like (3×) count equal records among those shown.
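Also: spheroids exposed to compound for 7 days before readout; 100% = DMSO vehicle control wells.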

Turning to `CC(C)NCC(C(=O)N1CCN(c2ncnc3c2C(C)CC3O)CC1)c1ccc(Cl)cc1` (centres undefined), the viability, T/C is, setting by setting: (compound alone 0.3 µM) 92.9, 81.5, 102, 112, 105, 66.1, 72.5, 87.5, 88.8, 93.8%; (compound alone 0.949 µM) 85.7, 115 (2×), 97.2, 96.3, 89.8, 73.7, 121, 110, 89.2%; (compound alone 3 µM) 84, 97, 92.8, 110, 101, 72.4, 68.8, 106, 84.9, 100%; (compound alone 9.49 µM) 93.1, 91.6, 109, 120, 90.2, 81.4, 74.8, 98.6, 107, 97.6%.
